Measured values published in PubChem BioAssay (NCATS).
Several values for one entry are separate records, joined by “and”; a condition that tells them apart may be missing. Equal entries are not always repeated. Inconclusive results, whose numbers are uncertain, are shown with a selection of clear calls. Potencies of inconclusive entries are doubtful fits and often do not repeat. Activity calls are given as the source filed them. Calls come from the whole dose curve; as a rule, active = well fitted inhibition curve with a large enough effect; inconclusive = small, poorly fitted or top-dose-only effect; inactive = flat fitted curve, though single readings scatter.

These compounds were tested against Tyrosyl-DNA phosphodiesterase 1 (Homo sapiens) (UniProt Q9NUW8) (assay: Confirmation Assay for Inhibitors of Tyrosyl-DNA Phosphodiesterase (TDP1) (AID 489007; note: nearly all actives have a fitted effect of over 40% in size)). Conditions: recombinant human TDP1 enzymatic activity, dose-response.
Description: Human tyrosyl-DNA phosphodiesterase I (Tdp1) is a rational anticancer target because this enzyme is involved in the repair of DNA lesions created by the trapping of human DNA topoisomerase I (Top1) following treatment by anticancer agents such as camptothecins. Recombinant Tdp1 was expressed and purified from E. coli in the laboratory (Anthony et al, Nucleic Acids Research, 2007, Vol. 35, 4474-4484). A Tdp1 DNA substrate bearing a 5' biotin and a 3' phospho-tyrosine was obtained by custom synthesis. This oligonucleotidic DNA substrate was subsequently coupled to a fluorescein isothiocyanate (FITC) group via the free amino group present on the phospho-tyrosine. Tdp1 was screened against the NCGC small molecule library using the AlphaScreen (AS) detection method in which a streptavidin donor AS bead is bound at the 5' end and an anti-FITC AS acceptor bead is bound at the 3' end of the DNA oligonucleotidic substrate. In the presence of Tdp1, the enzyme cleaves the tyrosine-FITC group, leaving a 3' end phosphate on the DNA substrate. This cleavage reaction results in a loss of signal in AS.
This BioAssay is a confirmation of followup compounds from primary TDP1 screen (AID:485290)
NIH Molecular Libraries Probe Production Network [MLPCN]
NIH Chemical Genomics Center [NCGC]
Assay Provider: Yves Pommier and Christophe Marchand, National Cancer Institute
Assay Title: qHTS Assay for Inhibitors of Tyrosyl-DNA Phosphodiesterase (TDP1)
[1] 3 ul of buffer is dispensed in columns 3 & 4 as negative control (no enzyme and maximum signal),
[2] 3 ul of enzyme (1 nM final) is dispensed in columns 1,2, 5-48,
[3] 1 ul of substrate (15 nM final) is dispensed throughout the plate,
[4] 1 ul of AS donor/acceptor bead mix (10 ug/ml final) is dispensed throughout the plate
3 ul of Tdp1 enzyme is dispensed to 1536-well Kalypsys black solid bottom plates. Compounds and controls (23 nl) are transferred via Kalypsys Pin Tool. The plates are incubated for 15 min at room temperature, and then 1 ul of substrate is added to start the reaction. After 5 min incubation at room temperature, 1 ul of AS donor/acceptor bead mix is added and the plates are further incubated for 10 min at room temperature. The detection is then performed on a PerkinElmer Envision reader.
Potency is the fitted concentration of half-maximal effect; tags give direction and shape of the fitted curve.

Chain of UniProt Q9NUW8 (Q9NUW8 whole entry, looked up): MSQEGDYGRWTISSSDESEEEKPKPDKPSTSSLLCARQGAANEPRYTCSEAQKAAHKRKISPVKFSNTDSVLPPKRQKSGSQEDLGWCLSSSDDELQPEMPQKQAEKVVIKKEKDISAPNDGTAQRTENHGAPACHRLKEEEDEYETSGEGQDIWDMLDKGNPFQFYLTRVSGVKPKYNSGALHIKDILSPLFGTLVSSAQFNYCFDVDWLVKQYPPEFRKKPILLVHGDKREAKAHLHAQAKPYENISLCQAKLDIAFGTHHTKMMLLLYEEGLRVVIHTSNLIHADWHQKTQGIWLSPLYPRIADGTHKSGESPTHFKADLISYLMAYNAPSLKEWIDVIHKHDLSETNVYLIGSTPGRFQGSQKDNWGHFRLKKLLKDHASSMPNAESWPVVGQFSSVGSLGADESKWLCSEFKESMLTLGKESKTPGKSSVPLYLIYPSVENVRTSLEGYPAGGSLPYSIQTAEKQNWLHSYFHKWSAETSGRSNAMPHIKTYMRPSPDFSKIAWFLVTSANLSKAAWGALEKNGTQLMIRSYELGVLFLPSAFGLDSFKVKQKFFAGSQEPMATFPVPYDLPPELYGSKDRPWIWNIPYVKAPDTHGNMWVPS

Potency, active:
COc1ccc(/C=N/N=C2/NC(=O)C(CC(=O)O)S2)cc1OCc1ccc(Cl)cc1Cl (stereo not given) 39.8 µM, CO/N=C(/C(=O)NC1C(=O)N2C(C(=O)O)=C(CSc3nc(=O)c(O)nn3C)CSC12)c1csc(N)n1 (stereo not given) 1.78 µM and 12.6 µM, CCC(=O)c1ccc(CCCCCC(=O)O)s1 31.6 µM, Cc1c(C(=O)O)sc2nc3n(c(=O)c12)CCC3 6.31 µM, CN(Cc1ccccc1)c1nc(-c2ccc(F)cc2)cc(C(F)(F)F)n1 28.2 µM, O=C(O)C1C2C=CC3(O2)C1C(=O)N1c2ccccc2C2OCCC2C13 (stereo not given) 35.5 µM, CC(=O)NC1=NC(=O)/C(=C/c2cc(C)n(-c3cccc(C(=O)O)c3)c2C)S1 2 µM, Cc1ccc(CN2C(=O)N/C(=C/c3ccc(-c4ccc(C(=O)O)cc4)o3)C2=O)cc1 12.6 µM, Cc1nn(-c2ccccc2)c(C)c1S(=O)(=O)O 25.1 µM

Potency, inconclusive:
O=C(O)c1cccc(NC(=S)NC(=O)c2ccc(-c3ccc(Cl)cc3)o2)c1 141 µM [inhibitor, single point], COc1cc(OC)c(OC)cc1/C=C1\Oc2cc(OS(C)(=O)=O)ccc2C1=O 25.1 µM [inhibitor, full curve], O=C(CSc1nnc2ccc3ccccc3n12)c1ccc(F)cc1 126 µM [inhibitor, single point], CN(C)Cc1ccccc1-c1cc(-n2ccnc2)ncn1 7.94 µM [inhibitor, full curve], COc1ccc2cc3cc(C(=O)NCc4ccco4)oc3nc2c1 100 µM [inhibitor, single point], COC(=O)c1cnn(-c2ccc(C(=O)Nc3ccc(C(C)=O)cc3)cc2)c1N 31.6 µM [inhibitor, full curve, poor fit], CCn1c(SCC(=O)O)nc2sc3c(c2c1=O)CCC3 12.6 µM [inhibitor, full curve], COc1ccccc1NC(=O)C1=C(C)Nc2nc(SCc3cccc(F)c3)nn2C1c1ccc(C(=O)O)cc1 (stereo not given) 126 µM [inhibitor, single point], Cc1csc(C(=O)O)c1-n1cccc1 112 µM [inhibitor, single point], Cc1ccc(S(=O)(=O)N(C#N)c2nc(C)cc(C)n2)cc1 56.2 µM [inhibitor, single point], Nc1nc(SCC(=O)Nc2ccc(OCc3ccccc3)cc2)n[nH]1 158 µM [inhibitor, single point], O=Cc1ccc2oc3nc4n(c(=O)c3c(=O)c2c1)CCCS4 7.08 µM [inhibitor, partial curve], CC(C)c1ccc(NC(=O)C[n+]2ccn(C3=C([O-])c4ccccc4C3=O)c2)cc1 31.6 µM [inhibitor, full curve], O=C(O)c1ccc2c(c1)C(=O)/C(=C\c1ccco1)C2=O 15.8 µM [inhibitor, full curve], Cc1cccc(Nc2nn3c(=O)c4ccccc4nc3s2)c1 25.1 µM [inhibitor, partial curve], N=C1/C(=C/c2ccc(-c3cccc(C(=O)O)c3)o2)C(=O)N=C2SC=C(c3ccccc3)N12 10 µM [inhibitor, full curve], Cc1c(Cl)cnc(NC(=O)COC(=O)c2cccc(S(=O)(=O)N3CCc4ccccc4C3)c2)c1Cl 100 µM [inhibitor, partial curve], O=Cc1ccc(-c2cccc(C(=O)O)c2)o1 79.4 µM [inhibitor, partial curve], CCCc1nc2sc3c(SCC(=O)NCc4ccco4)ncnc3c2c2c1CCC2 100 µM [inhibitor, partial curve], Cc1[nH][nH]c(=O)c1C(c1ccc(-c2cccc(C(=O)O)c2)o1)c1c(C)[nH][nH]c1=O 17.8 µM [inhibitor, full curve], COc1ccc(C(=O)c2cn(CC(=O)Nc3cc(OC)cc(OC)c3)c3ccc(OC)cc3c2=O)cc1 100 µM [inhibitor, partial curve], O=C(Nc1nc2nccc(-c3ccccc3)n2n1)c1ccccc1 39.8 µM [inhibitor, single point], CCC(=O)N1CCc2cc(Br)cc(S(=O)(=O)CCC(=O)N(C)c3cccc(C)c3)c21 100 µM [inhibitor, single point], O=C1C=C(O)CC(c2ccco2)C1 (stereo not given) 100 µM [inhibitor, partial curve], COc1ccc(NC(=O)c2noc3c2CCC3)cc1 8.91 µM [inhibitor, full curve], O=C(Nc1ccncc1)c1ccc2c(c1)C(=O)N(C1CCCCC1)C2=O 100 µM [inhibitor, partial curve], O=C1COc2cc(S(=O)(=O)NCc3ccco3)c(Cl)cc2N1 50.1 µM [inhibitor, partial curve], NCc1ccccc1CC(=O)N[C@@H]1C(=O)N2C(C(=O)O)=C(CSc3nnnn3CC(=O)O)CS[C@@H]12 22.4 µM [inhibitor, partial curve], O=C(CN1CCOCC1)N/N=C/c1ccc(-c2ccc(C(=O)O)cc2)o1 100 µM [inhibitor, single point], O=C(Cn1c(=O)n(Cc2ccc(C(=O)NCc3ccc4c(c3)OCO4)cc2)c(=O)c2ccccc21)Nc1ccc(F)cc1F 39.8 µM [inhibitor, partial curve], Cc1cccc(N2NC(=O)/C(=C/c3ccc(-c4ccc(Cl)c(C(=O)O)c4)o3)C2=O)c1 14.1 µM [inhibitor, partial curve]
